Laboratory results as given in patent publication US20100204114A1, “USE OF A GALANIN PEPTIDE AS A THERAPEUTIC AGENT” (priority 2007, published 2010).
Where no end group is shown, it is not given here.

System: RAW 264.7 (Mouse leukaemic monocyte macrophage cell line) cells
Assay: Phagocytosis assay (Fluorescein-labeled Escherichia coli, flow cytometry)
Conditions: 10 micrograms per ml, 30 min preincubation, 60 min ingestion

## Ile-Tyr-Leu-Gly-Gly-Pro-Phe-Ser-Pro-Asn-Val-Leu-OH (IYLGGPFSPNVL-OH) [peptide 2]
  increase on the phagocytic activity of murine macrophages: 51.4%

## Gly-Trp-Thr-Leu-Asn-Ser-Ala-Gly-Tyr-Leu-Leu-Gly-Pro-His-Ala-Val-Gly-Asn-His-Arg-Ser-Phe-Ser-Asp-Lys-Asn-Gly-Leu-Thr-Ser-OH [peptide 1]
  increase on the phagocytic activity of murine macrophages: 22.9%
